Target: T1, tandem harmonin homology domains (HHD1+2) of human RTEL1, residues 886-1140 (human, UniProt Q9NZ71-6 886-1140)
T1 sequence: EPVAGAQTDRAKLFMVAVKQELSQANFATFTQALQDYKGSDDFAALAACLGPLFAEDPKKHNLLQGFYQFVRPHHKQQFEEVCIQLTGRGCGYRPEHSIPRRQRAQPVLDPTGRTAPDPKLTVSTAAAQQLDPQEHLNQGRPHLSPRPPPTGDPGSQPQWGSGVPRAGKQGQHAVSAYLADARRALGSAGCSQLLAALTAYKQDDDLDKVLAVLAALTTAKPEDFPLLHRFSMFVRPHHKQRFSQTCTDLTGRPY
Experiment: NMR titration

B1: winged-helix domain 32C of human RPA ([…] of RPA2) (domain or fragment)
chain: not shown
B1: binds.

— publication doi:10.1101/2022.08.08.503141 (bioRxiv, 2022)
